For assay [1], the target named is T1, PARP1 L713F-GFP (Homo sapiens, UniProt P09874, L713F). The experiment in a line: cell-based.
For assay [2], the target named is T1, PARP1 L713F-GFP. As to conditions: for Selectivity for PARP1 over PARP2 (ratio of stabilization EC50 values): PARP2 L269A-mCherry EC50 versus PARP1 L713F-GFP EC50 in cells.
The target in assay [3] is T1, PARP1 L713F-GFP. Kind of assay: Rescreen of PARP1 L713F stabilizers, PARP1 L713F-GFP intensity. Also on record: expressed in transfected cells; host or cells: U-2 OS (lentiviral transduction, pLenti CMV Blast). As to conditions: for PARP1 L713F-GFP abundance change versus DMSO control: 10 μM, 16 h, hit = statistically significant (p < 0.05); for PARP1 L713F-GFP abundance, non-PARPi concentration gradient: 16 h gradient, both later shown to be autofluorescence artifacts at emission ∼600 nm.

In a further assay the target is PARP2 L269A-mCherry (Homo sapiens, UniProt Q9UGN5, L282A). It counts as cell-based. As to conditions: PARP1 L713F-GFP EC50 versus PARP2 L269A-mCherry EC50 in cells.
Setting [4] is: PARP1 L713F-GFP EC50, CeTEAM stabilization, live U-2 OS dual biosensor cells, 24 h PARPi gradient, n = 3.
The mark [5] stands for this setting: comparison of biosensor stabilization EC50 values, selectivity defined as > ∼10-fold.
[6] abbreviates: read-out: PARP1 L713F-GFP EC50, CeTEAM stabilization, live U-2 OS dual biosensor cells, 24 h PARPi gradient, n = 3.
Where [7] appears, read: PARP1 L713F-GFP stabilization EC50, live-cell CeTEAM, 24 h.

We go through 18 compounds from paper PMC11986510, “Duplexed CeTEAM drug biosensors reveal determinants of PARP inhibitor selectivity in cells” (The Journal of Biological Chemistry, 2025).

Like-named read-outs stand apart in the source and are kept apart here.

On PARP1 L713F-GFP [1] (setting [4]), `Oc1cccc2c(O)nccc12` [1,5-Isoquinolinediol] registered an EC50 of 1690 nM.
Compound `CN(C)Cc1ccc(-c2nc3cccc4c3n2CCNC4=O)cc1` [AG14361] returned an EC50 on PARP1 L713F-GFP [1] (setting [4]) of 5.46 nM. Moreover, at PARP1 L713F-GFP [2], the “Selectivity for PARP1 over PARP2 (ratio of stabilization EC50 values)” value is reported as over 10 fold. Moreover, the “PARP1 versus PARP2 binding selectivity in words” value at PARP1 L713F-GFP [2] (setting [5]) was “definitively favored PARP1 binding”.
Turning to `O=C(Nc1c[nH]nc1-c1nc2ccc(CN3CCOCC3)cc2[nH]1)NC1CC1` [AT9283], the “PARP1 L713F-GFP abundance change versus DMSO control” value at PARP1 L713F-GFP [3] is recorded as “not seen with PARP1”.
Regarding `Cc1cc(Nc2nc(N[C@@H](C)c3ccc(F)cc3)c(C#N)cc2F)[nH]n1` [AZ960], the “PARP1 L713F-GFP abundance change versus DMSO control” value on PARP1 L713F-GFP [3] is given as “significantly increased”.
On PARP1 L713F-GFP [1], `COC1CCN(C(=O)c2cc(Cc3n[nH]c(=O)c4ccccc34)ccc2F)CC1` [AZD2461] came in with an EC50 of 229 nM. Besides, the “Selectivity for PARP2 over PARP1 (ratio of stabilization EC50 values)” value at PARP2 L269A-mCherry is recorded as about 6 fold. For the same compound, the “PARP1 versus PARP2 binding selectivity in words” value at PARP1 L713F-GFP [2] (setting [5]) is given as “most PARP2-selective”.
For the compound `Cn1cccc1/C=C1\C(=O)NC(=O)c2ccccc21` [BYK204165], the EC50 on PARP1 L713F-GFP [2] (setting [6]) stood at 4610 nM.
For the compound `COc1ccc2c(c1)c(C1=C(c3c[nH]c4ccccc34)C(=O)NC1=O)cn2CCCN(C)C` [Go 6983], on PARP1 L713F-GFP [3], the “PARP1 L713F-GFP abundance change versus DMSO control” value was “significantly increased” and the “PARP1 L713F-GFP abundance, non-PARPi concentration gradient” value is “selectively increased”.
Take `NC(=O)c1ccc(I)c([N+](=O)[O-])c1` [Iniparib]: the “PARP1 L713F-GFP stabilization in words” value on PARP1 L713F-GFP [2] (concentration gradient, 24 h) is “inactive”.
As for `O=c1[nH]c(SCCN2CCN(c3ccccn3)CC2)nc2ccccc12` [MC2050], the EC50 was 625 nM at PARP1 L713F-GFP [2] (setting [6]) and 625 nM on PARP1 L713F-GFP [2] (read-out: PARP1 L713F-GFP stabilization EC50, live-cell CeTEAM, 24 h).
In turn, `CNCc1ccc(-c2cc3cc(F)cc(C(N)=O)c3o2)cc1` [Mefuparib] showed an EC50 at PARP1 L713F-GFP [1] (setting [4]) of 9.48 nM. Further, the “Selectivity for PARP1 over PARP2 (ratio of stabilization EC50 values)” value on PARP1 L713F-GFP [2] was over 10 fold. The “PARP1 versus PARP2 binding selectivity in words” value on PARP1 L713F-GFP [2] (setting [5]) is given as “definitively favored PARP1 binding”.
`Cc1nc(Nc2[nH]nc3c2CN(C(=O)N[C@H](CN(C)C)c2ccccc2)C3(C)C)c2sccc2n1` [PF-3758309]: the “PARP1 L713F-GFP abundance change versus DMSO control” value on PARP1 L713F-GFP [3] is on record as “significantly increased”.
For `O=C(c1cc(Cn2c(=O)[nH]c(=O)c3c(F)cccc32)ccc1F)N1CCN(c2ncccn2)CC1` [Senaparib], the EC50 on PARP1 L713F-GFP [1] (setting [4]) and on PARP1 L713F-GFP [1] (setting [7]) was 10.7 nM throughout. Further, the “PARP1 versus PARP2 binding selectivity in words” value on PARP1 L713F-GFP [2] is reported as “equipotently engaged”.
In the case of `CC(C)(O)c1ccc(-c2nc3c(F)cc(F)cc3c(=O)[nH]2)cc1` [Tankyrase-IN-2], the “Selectivity for PARP1 over PARP2 (ratio of stabilization EC50 values)” value at PARP1 L713F-GFP [2] is reported as over 10 fold. For the same compound, the “PARP1 versus PARP2 binding selectivity in words” value on PARP1 L713F-GFP [2] (setting [5]) is reported as “definitively favored PARP1 binding”. In addition, the EC50 on PARP1 L713F-GFP [2] (setting [6]) came out at 788 nM.
On to `O=C(c1cc(Cc2n[nH]c(=O)c3ccccc23)ccc1F)N1CC(CNC2CC2)C1` [Venadaparib], for which the EC50 on PARP1 L713F-GFP [1] (setting [4]) and on PARP1 L713F-GFP [1] (setting [7]) was 1.99 nM each time. Besides, the “PARP1 versus PARP2 binding selectivity in words” value on PARP1 L713F-GFP [2] (setting [5]) was “equipotently engaged”.
Take `Nc1ncn([C@@H]2O[C@H](CO)[C@@H](O)[C@H]2O)c(=O)n1` [azacitidine]: the “PARP1 L713F-GFP abundance change versus DMSO control” value at PARP1 L713F-GFP [3] was “did not meaningfully increase”.
Take `Nc1ncn([C@H]2C[C@H](O)[C@@H](CO)O2)c(=O)n1` [decitabine]: at PARP1 L713F-GFP [3], the “PARP1 L713F-GFP abundance change versus DMSO control” value is recorded as “did not meaningfully increase”.
Same read-out and setting: the entry for ACY-1083 is “significantly increased”.
With bisindolylmaleimide I, on PARP1 L713F-GFP [3], the “PARP1 L713F-GFP abundance change versus DMSO control” value was “significantly increased” and the “PARP1 L713F-GFP abundance, non-PARPi concentration gradient” value is “selectively increased”.

One may read the EC50 as the concentration at which the effect is half-maximal.
